From publication PMC4336329 (PLoS ONE, 2015) come the findings set out here.

The campaign covered roughly 310,000 compounds. About 2,200 (0.71%) showed an effect of 50% or more. Effects have a minus sign here. This is one part of the list.

For the experiment, the target named is human ether-à-go-go-related gene (hERG) potassium channel (human, UniProt Q12809). The experiment can be described thus: primary screen, population patch clamp on CHO cells stably expressing hERG.
Chain of human ether-à-go-go-related gene (hERG) potassium channel (Q12809 whole entry, looked up): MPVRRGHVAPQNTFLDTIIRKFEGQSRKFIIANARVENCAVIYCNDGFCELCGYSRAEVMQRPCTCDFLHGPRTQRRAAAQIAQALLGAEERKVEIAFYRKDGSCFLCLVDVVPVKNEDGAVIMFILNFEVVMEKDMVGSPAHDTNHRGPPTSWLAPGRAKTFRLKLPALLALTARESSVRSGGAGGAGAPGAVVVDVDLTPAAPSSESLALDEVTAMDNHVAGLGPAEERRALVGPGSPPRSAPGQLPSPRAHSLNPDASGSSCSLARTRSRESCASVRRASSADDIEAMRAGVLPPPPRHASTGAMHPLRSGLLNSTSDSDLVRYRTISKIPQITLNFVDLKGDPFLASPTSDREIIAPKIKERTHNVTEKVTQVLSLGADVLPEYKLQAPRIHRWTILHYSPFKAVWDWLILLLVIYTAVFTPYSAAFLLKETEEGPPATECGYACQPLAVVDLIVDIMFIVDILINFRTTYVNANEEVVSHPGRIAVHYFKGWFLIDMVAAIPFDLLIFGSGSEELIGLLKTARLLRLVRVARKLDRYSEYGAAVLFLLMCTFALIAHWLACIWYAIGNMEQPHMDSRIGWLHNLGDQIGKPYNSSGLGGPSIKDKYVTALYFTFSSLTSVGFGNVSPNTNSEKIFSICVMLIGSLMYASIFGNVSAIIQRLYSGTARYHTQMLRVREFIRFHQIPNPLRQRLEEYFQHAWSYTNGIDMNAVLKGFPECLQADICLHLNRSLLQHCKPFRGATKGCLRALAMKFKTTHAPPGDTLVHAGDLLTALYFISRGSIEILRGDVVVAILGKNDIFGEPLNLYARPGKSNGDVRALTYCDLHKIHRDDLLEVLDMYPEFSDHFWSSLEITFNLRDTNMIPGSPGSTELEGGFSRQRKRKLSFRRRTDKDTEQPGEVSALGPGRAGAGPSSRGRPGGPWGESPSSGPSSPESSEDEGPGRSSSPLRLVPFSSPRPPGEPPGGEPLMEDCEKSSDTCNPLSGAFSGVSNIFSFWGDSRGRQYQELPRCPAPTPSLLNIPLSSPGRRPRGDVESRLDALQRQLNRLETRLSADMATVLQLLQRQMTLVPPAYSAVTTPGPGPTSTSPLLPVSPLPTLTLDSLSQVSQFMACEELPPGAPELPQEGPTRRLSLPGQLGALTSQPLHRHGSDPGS
Regarding `CCOC(=O)N1CCN(S(=O)(=O)c2ccc(C(=O)NNc3nc4ccc(Cl)cc4s3)cc2)CC1`, the “hERG current change (%, negative = inhibition) at 1uM” value amounted to 6.7%.
Consider `CCN(CC)S(=O)(=O)c1cccc(C(=O)N[C@H](C(=O)Nc2nc3ccc(F)cc3s2)C(C)C)c1`, for which the “hERG current change (%, negative = inhibition) at 1uM” value was 4.44%.
For the molecule `CCc1ccc(NC(=O)CS(=O)CC(=O)Nc2ccc(F)cc2F)cc1` (stereo not drawn), the “hERG current change (%, negative = inhibition) at 1uM” value is 1.48%.
With `CCCOc1ccccc1C(=O)NCCCC(=O)O`, the “hERG current change (%, negative = inhibition) at 1uM” value turned out to be 6.66%.
With `CC(C(=O)c1ccc2ccccc2c1)N1CCCCC1` (stereo not drawn), the “hERG current change (%, negative = inhibition) at 1uM” value amounted to 4.52%.
`COC(=O)Cc1ccc(NC(=S)NCc2ccccc2Cl)cc1`: the “hERG current change (%, negative = inhibition) at 1uM” value is 4.85%.
For `CCOC(=O)c1c(NC(C)=O)sc2c1CCC(C=NCCCN(CC)CC)=C2Sc1ccccc1` the value was 8.71%.
Then `Cc1cc(Cl)ccc1NC(=S)N1CCN(C(=O)c2ccco2)CC1`, with 4.35%.
`COc1ccc(CCNC(=O)c2ccc(-c3ccc([N+](=O)[O-])cc3Cl)o2)cc1`: the “hERG current change (%, negative = inhibition) at 1uM” value amounted to 7.52%.
For `Cc1ccc(C(=O)N2CCCC2)cc1S(=O)(=O)N1CCCCC1` the value was 13.3%.
Then `COC(=O)C1CCN(C(=O)c2cc(=O)[nH]c3ccccc23)CC1`, with 4.27%; and `COC(=O)c1cc(S(=O)(=O)N2CCC(c3cc(OC)ccc3OC)C2)c[nH]1` (stereo not drawn), with 12.1%; and `NC(=O)Cc1nc(-c2ccc(F)cc2)cs1`, with 10.1%.
Then `O=C(CN1CCC(C(O)(c2ccccc2)c2ccccc2)CC1)Nc1cc(Cl)ccc1Cl`, with 1.18%; and `O=C(Cn1cncn1)N/N=C/c1ccncc1`, with 6.34%.
Turning to `O=[N+]([O-])c1cc(C(F)(F)F)ccc1NCCCCNS(=O)(=O)c1ccc(Cl)cc1`, the “hERG current change (%, negative = inhibition) at 1uM” value came out at 2.8%.
On to `S=C(Nc1cccnc1)NC1CCCC1`, for which the “hERG current change (%, negative = inhibition) at 1uM” value was determined as 11%.
Take `CC1CCN(C(=O)COC(=O)C2CCN(S(=O)(=O)c3ccc4c(c3)OCCO4)CC2)CC1`: the “hERG current change (%, negative = inhibition) at 1uM” value is reported as 2.4%.
For `C[C@H](NC(=O)c1nc[nH]c1C(=O)N(C)Cc1ccccc1)c1ccccc1` the value was 10.6%; for `Cc1ccc(NC(=O)COC(=O)/C=C/c2ccco2)cc1S(=O)(=O)N(C)C`, 0.273%; for `Cc1nn2c(=O)nc3sc4c(c3c2[nH]c1=O)CCCC4`, 11%.
For `O=C(c1cccc(S(=O)(=O)N2CCCCC2)c1)N1CCCCC1` the value was 9.44%.
Consider `Cc1ccc(-c2cc(C(=O)O)c3ccccc3n2)s1`, for which the “hERG current change (%, negative = inhibition) at 1uM” value came out at 9.63%.
For `COC(=O)c1ccc(COc2ncnc3sccc23)cc1` the value was 9.93%; for `C=CCNc1nc(-c2ccccc2)nc(-n2ccnc2)n1`, -6.16%; for `Cc1ccc(O)c(Cn2nnc3ccccc32)c1`, 18.2%.
Consider `COCCNc1cnn(-c2ccccc2)c(=O)c1Cl`, for which the “hERG current change (%, negative = inhibition) at 1uM” value was determined as 15.7%.
Then `CC1CCCC(C)N1C(=O)COC(=O)COc1ccccc1C#N` (stereo not drawn), with 10.2%; and `COc1cccc(CNC(=O)COC(=O)c2nc(Cl)c(Cl)c(Cl)c2Cl)c1`, with 7.37%.
As to `O=[N+]([O-])c1nn(-c2ccc(Cl)cc2)n(O)c1=NCc1ccccc1`, the “hERG current change (%, negative = inhibition) at 1uM” value is 11.5%.
Then `O=C(Nc1ccc(Cl)c(Cl)c1)Nc1cc(C(=O)N2CCOCC2)ccc1N1CCCCC1`, with 11.5%; and `CC(C)OC(=O)CSc1nnc(Cc2ccccc2)n1CC1CCCO1` (stereo not drawn), with 10.7%; and `Cc1ccc(CN(C)C(=O)c2cc(COc3cccc(C(F)(F)F)c3)on2)o1`, with -8.96%.
Consider `CC(C)(CO)NS(=O)(=O)c1ccc2c(c1)C(=NO)c1cc(S(=O)(=O)NC(C)(C)CO)ccc1-2`, for which the “hERG current change (%, negative = inhibition) at 1uM” value is 6.72%.
On to `O=C(O)c1ccc(Cl)c(S(=O)(=O)N(Cc2ccccc2)c2ccc(Cl)cc2)c1`, for which the “hERG current change (%, negative = inhibition) at 1uM” value was 20%.
Then `COc1ccc(C2=Nn3c(nnc3-c3ccco3)SC2)cc1`, with -16.7%.
As for `O=C(NCCc1ccccc1)c1cc(-c2ccco2)on1`, the “hERG current change (%, negative = inhibition) at 1uM” value was -6.42%.
Then `O=C(NCc1cccnc1)c1cc(-c2ccccc2)on1`, with 1.78%; and `CCN(CC(=O)Nc1ccccc1OC)C(=O)CCc1ccccc1`, with 9.39%.
Then `CC1CN(CC(O)COC2CCC(C(C)(C)C)CC2)CC(C)O1.Cl` (stereo not drawn), with 13%; and `CC(=O)Nc1ccc(SCC(=O)Nc2oc(C)c3c(C)n[nH]c(=O)c23)cc1`, with 3.74%.
As for `O=C(c1c(F)cccc1F)N1CCCC(c2nc(-c3ccc(F)cc3)no2)C1` (stereo not drawn), the “hERG current change (%, negative = inhibition) at 1uM” value is on record as 2.23%.
For `COc1cc(C(C)=O)ccc1OCc1cc(C(=O)N2CCSCC2)no1` the value was 31.5%; for `COc1ccc(NC(=O)COC(=O)Cn2cnc3ccccc3c2=O)cc1OC`, 10.9%.
For `c1cnc(Nc2nc(-c3ccc4ccccc4c3)cs2)nc1` the value was 11.6%.
